Results on 46 molecules are retold here after PubChem BioAssay AID504845 (National Center for Advancing Translational Sciences (NCATS), 2011).

Structures are written as SMILES. Values joined by “and” are separate entries in the source; they are usually repeats but may differ in a detail not shown here. Equal values may be shown once. The campaign covered roughly 390,000 compounds. About 150 (0.038%) were called active. About 3% were inconclusive and are not listed. The call rests on the fitted dose curve; in most records, active means well fitted inhibition curve with a large enough effect; inconclusive means small, poorly fitted or top-dose-only effect; inactive means no such curve, though single readings can be large or run the other way. Only a part is listed here, and it is no random draw. The source holds several records for some structures; these can differ, active in one and inactive in another. Non-standard residues stand in square brackets, D forms with d. Residues, ends and D or L forms follow the SMILES beside them. *: point of attachment. Sta = CC(C)C[C@H](N)[C@@H](O)CC(=O)O; Isovaleryl = CC(C)CC(=O)*
On the % scale 0 is the no-effect control and ±100 the full control effect; potency means the concentration at half of the fitted maximal effect.

Sequence of UniProt P49798 (P49798 whole entry, looked up): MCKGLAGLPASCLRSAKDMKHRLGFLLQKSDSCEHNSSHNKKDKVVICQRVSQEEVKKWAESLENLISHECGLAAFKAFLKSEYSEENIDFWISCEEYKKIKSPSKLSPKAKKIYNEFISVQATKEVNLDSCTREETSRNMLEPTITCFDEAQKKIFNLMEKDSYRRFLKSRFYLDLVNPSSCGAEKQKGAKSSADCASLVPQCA

The experiment concerns the target Regulator of G-protein signaling 4 (Homo sapiens) (UniProt P49798). Briefly: Inhibitors of Regulator of G Protein Signaling (RGS) 4: qHTS. Further: nearly all actives have a fitted effect of over 75% in size. The conditions noted are these: Transcreener GDP fluorescence polarization, RGS4-accelerated GTP hydrolysis; series mostly up to 114 µM; activity change, negative = inhibition: at the top concentration. In outline:
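MLSMR compounds (23 nl, pin-transferred) preincubated 10 min at room temperature with a 500nM (2x) first reagent, then RGS4 at 900nM (2x) plus Transcreener GDP mix added; fluorescence polarization (620/688 nm) read before and after 90 min at 30 °C.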
`COC(=O)C1=C(C)NC(C)=C([N+](=O)[O-])C1c1ccccc1C(F)(F)F` (stereo unspecified): the Potency result was “inactive”.

With `COc1cc(C(=O)OCCCN2CCCN(CCCOC(=O)c3cc(OC)c(OC)c(OC)c3)CC2)cc(OC)c1OC`, the Potency result is “inactive”.

For the molecule `CCn1cc(C(=O)NCCCOC)c(=O)c2cc(S(=O)(=O)N3CCC(C)CC3)ccc21`, the “activity change, negative = inhibition” value was inactive: 70.5%.

Regarding `C=CCCC(=O)N1CCC(n2nccc2NC(=O)c2ccc(OC)cc2)CC1`, the “activity change, negative = inhibition” value was inactive: 54%.

For `COc1ccc(OC)c(C(c2nnnn2CCC(C)C)N2CCN(C(=O)c3ccco3)CC2)c1` (stereo unspecified), the “activity change, negative = inhibition” value is inactive: 54.4%.

In the case of `Cc1c(C(=O)NCCO)sc2nc3n(c(=O)c12)CCC3`, the “activity change, negative = inhibition” value was inactive: 64.8%.

On to `COc1ccc(C(CNC(=O)COc2ccccc2C)N2CCCCC2)cc1` (stereo unspecified), for which the “activity change, negative = inhibition” value was inactive: 56.7%.

Turning to `O=C(Nc1ccc(-c2nc3ccccc3[nH]2)cc1)c1ccco1`, the “activity change, negative = inhibition” value is inactive: -2.34%.

As to `O=C(NCCN1CCOCC1)/C(=C\c1ccccc1Cl)NC(=O)c1ccccc1`, the “activity change, negative = inhibition” value is inactive: 66.1%.

Turning to `CCC(C)N(C)C(=O)c1cc2ccccc2c(-c2ccccc2Cl)n1` (stereo unspecified), the “activity change, negative = inhibition” value was inactive: -5.39%.

As to `Cc1nc2ccc3nc(NC(=O)c4ccc5c(c4)OCCO5)sc3c2s1`, the “activity change, negative = inhibition” value was inactive: -28.2%.

Consider `COC(=O)/C=C1/S/C(=N/NC(=O)c2ccc(OC)cc2)NC1=O`, for which the “activity change, negative = inhibition” value is inactive: -2.85%.

On to `Nc1ncnc2c1c(-c1ccc(Oc3ccccc3)cc1)cn2C1CCCC1`, for which the “activity change, negative = inhibition” value was inactive: -2.18%.

With `CN1CCN(CCCN2c3ccccc3Sc3ccc(Cl)cc32)CC1`, the Potency entry is “inactive”.

Consider `N=c1c[n+](N2CCOCC2)[n-]o1`, for which the Potency entry is “inactive and active: 18.9 µM”.

`Cc1ccc(NC(=S)N/C(=N/S(=O)(=O)c2ccccc2)c2ccccc2)cc1`: the activity change, negative = inhibition is inactive: 16.3% [at 11.4 µM].

Consider `CC(=O)[C@]1(O)Cc2c(O)c3c(c(O)c2[C@@H](O[C@H]2C[C@H](N)[C@H](O)[C@H](C)O2)C1)C(=O)c1ccccc1C3=O`, for which the “activity change, negative = inhibition” value was inactive: -10.2%.

Take `Cn1ccc2cc(NC(=O)Nc3cccnc3)ccc21`: the “activity change, negative = inhibition” value was inactive: 276% [at 56.9 µM].

Turning to `COc1ccc(CCN(C)CCCC(C#N)(c2cc(OC)c(OC)c(OC)c2)C(C)C)cc1OC` (stereo unspecified), the Potency result is “inactive”.

Consider `O=C(/C=C/c1ccc(O)c(O)c1)OCCc1ccccc1`, for which the “activity change, negative = inhibition” value is inactive: -8.43%.

As to `C[C@H]1c2cccc(O)c2C(O)=C2C(=O)C3(O)C(O)=C(C(N)=O)C(=O)[C@@H](N(C)C)[C@@H]3[C@@H](O)[C@@H]21` (stereo partly specified), the “activity change, negative = inhibition” value was inactive: -36.4%.

`N#CC1=C(N)C(C#N)(C#N)[C@H](c2cccnc2)[C@H]2CN(C(=O)OCc3ccccc3)CC=C12`: the “activity change, negative = inhibition” value is inactive: -31.5%.

Regarding `CCCCC[C@H](O)/C=C/[C@H]1[C@H](O)CC(O)[C@@H]1C/C=C\CCCC(=O)O` (stereo partly specified), the Potency was active: 26.7 µM.

Regarding `CC(=O)O[C@H]1C(=O)[C@@]2(C)C([C@H](OC(=O)c3ccccc3)[C@]3(O)C[C@H](OC(=O)[C@H](O)[C@@H](NC(=O)c4ccccc4)c4ccccc4)C(C)=C1C3(C)C)[C@]1(OC(C)=O)CO[C@@H]1C[C@H]2O` (stereo partly specified), the “activity change, negative = inhibition” value is inactive: -4.97%.

With `CCOC(=O)[C@@H]1[C@H]2COc3ccccc3[C@@H]2N2C(=O)N(c3ccc(C)cc3)C(=O)[C@@]12C`, the “activity change, negative = inhibition” value is inactive: 1.55%.

For the molecule `CCCNCC(O)COc1ccccc1C(=O)CCc1ccccc1` (stereo unspecified), the Potency result is “inactive”.

Turning to `COc1ccc(S(=O)(=O)Nc2cccc(-c3ccc(N4CCCCCC4)nn3)c2)c(OC)c1`, the “activity change, negative = inhibition” value was inactive: -27.1% [at 56.9 µM].

With `COc1cc([C@@H]2c3cc4c(cc3[C@@H](O[C@@H]3O[C@@H]5CO[C@@H](C)O[C@H]5[C@H](O)[C@H]3O)[C@H]3COC(=O)[C@H]23)OCO4)cc(OC)c1O`, the “activity change, negative = inhibition” value is inactive: 7.06%.

On to `CN(C)c1nc(N(C)C)nc(N(C)C)n1`, for which the “activity change, negative = inhibition” value is inactive: 13.7%.

For the molecule `CN1C(=O)/C(=C\c2cc(N=Nc3ccccc3)ccc2O)SC1=S`, the “activity change, negative = inhibition” value was inactive: -40.7%.

In the case of `Nc1nc(NCc2ccc(Cl)c(Cl)c2)c2[nH]cnc2n1`, the “activity change, negative = inhibition” value was inactive: -3.15%.

For the molecule `COC(=O)C1=C(C)NC(C)=C(C(=O)OCCSc2ccccc2)C1C` (stereo unspecified), the Potency is active: 37.7 µM.

For `CC(C)CC(=O)N[C@H](C(=O)N[C@H](C(=O)N[C@@H](CC(C)C)[C@@H](O)CC(=O)N[C@@H](C)C(=O)N[C@@H](CC(C)C)[C@@H](O)CC(=O)O)C(C)C)C(C)C` (Isovaleryl-VV[Sta]A[Sta]-OH), the “activity change, negative = inhibition” value is inactive: -14.4%.

With `CCOC(=O)C12CC1/C(=N/O)c1ccccc1O2` (stereo unspecified), the “activity change, negative = inhibition” value is inactive: 7.42% [at 56.9 µM].

In the case of `CCOc1ccc(NC(=O)CCS(=O)(=O)c2ccc(Br)cc2)cc1`, the “activity change, negative = inhibition” value is inactive: 31.9%.

As for `C=CCN1CCc2c(cc(O)c(O)c2Br)[C@@H](c2ccccc2)C1`, the “activity change, negative = inhibition” value was inactive: 5.74%.

Regarding `CCC(=O)N1CCc2cc(S(=O)(=O)NC(C(=O)NCc3ccccc3)C(C)C)ccc21` (stereo unspecified), the “activity change, negative = inhibition” value was inactive: 58.6%.

For the molecule `N#C/C(=C\c1ccc(-c2ccc(C(=O)O)cc2)o1)c1nc2ccccc2[nH]1`, the “activity change, negative = inhibition” value was inactive: 6.14%.

On to `CC(=O)[C@H]1CCC2C3CC=C4C[C@@H](O)CC[C@]4(C)C3CC[C@@]21C` (stereo partly specified), for which the “activity change, negative = inhibition” value was inactive: -4.22%.

In the case of `Cc1cc(C)c(/C=C2\C(=O)Nc3ccccc32)[nH]1`, the “activity change, negative = inhibition” value was inactive: -8.09%.

Consider `Cc1ccc(CNC(=O)CN(c2ccc(C)cc2)S(=O)(=O)c2c(C)nn(C)c2C)cc1`, for which the “activity change, negative = inhibition” value was inactive: -5.8%.

With `CC(=O)O[C@H]1C(=O)[C@@]2(C)[C@H]([C@H](OC(=O)c3ccccc3)[C@]3(O)C[C@H](OC(=O)[C@H](O)C(NC(=O)c4ccccc4)c4ccccc4)C(C)=C1C3(C)C)[C@]1(OC(C)=O)CO[C@@H]1C[C@@H]2O` (stereo partly specified), the “activity change, negative = inhibition” value is inactive: -3.49%.

In the case of `COc1ccc(CCNC(=O)c2ccc3c(c2)N(Cc2ccc(F)cc2)CCS3)cc1OC`, the “activity change, negative = inhibition” value was inactive: -0.545%.

`C(#Cc1ccccc1)CN1CCN(c2ccccn2)CC1`: the “activity change, negative = inhibition” value was inactive: -46.1%.

For `CC(=O)NCC(=O)N(C)C(C(=O)Nc1ccc(C(C)C)cc1)c1ccccc1` (stereo unspecified), the “activity change, negative = inhibition” value is inactive: 55.2%.

Consider `O=C(c1cc(-c2ccc(O)cc2)on1)N1CCN(c2ccccc2)CC1`, for which the “activity change, negative = inhibition” value is inactive: -10.4%.
